Measured values reported in the supplement of paper PMC11166567.
The other results are listed elsewhere or left out.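 Rule for the calls: active = permutation test q below 0.05 after Benjamini-Hochberg correction; inactive = q of 0.05 or more.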

Test system: A549
Experiment: mean average precision of replicate retrieval against DMSO controls (Cell Painting phenotypic activity) (fraction (0-1)); higher = stronger, more reproducible morphological phenotype distinct from DMSO; extreme values may be limits of the assay
Details: 24 h; 5 µM
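Note: cosine similarity of well-level aggregated Cell Painting profiles ranks each compound's replicate wells against DMSO wells, four replicate plates, significance from 100,000 rank shuffles.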

Row | Structure (SMILES) | mean average precision
1 | Cc1[nH]cnc1CCN | inactive: 0.336
2 | C[C@@H]1CN(Cc2ccc(F)cc2)CCN1C(=O)COc1ccc(Cl)cc1NC(N)=O | active: 0.343
3 | COc1cc2c(c(OC)c1OC)-c1ccc(OC)c(=O)cc1[C@@H](NC(C)=O)CC2 | active: 1
4 | C[C@@H]1C[C@@H]([C@H](O)CC2CC(=O)NC(=O)C2)C(=O)[C@@H](C)C1 | active: 1
5 | CCCCC/C=C\C/C=C\C/C=C\C/C=C\CCCC(=O)NCCO | active: 0.439
6 | O=C1NCN(c2ccccc2)C12CCN(CC1COc3ccccc3O1)CC2 (stereo not drawn) | active: 0.505
7 | C/C(=C\c1csc(C)n1)[C@H]1C[C@@H]2O[C@]2(C)CCC[C@H](C)[C@H](O)[C@@H](C)C(=O)C(C)(C)[C@H](O)CC(=O)O1 | active: 1
8 | COc1ccc(N(C(=O)Oc2c(C)cccc2C)c2ccnc(Nc3ccc(N4CCN(C)CC4)cc3)n2)c(OC)c1 | active: 1
9 | CCC1(C2=NCCN2)Cc2ccccc2O1 (stereo not drawn) | inactive: 0.297
10 | C=C1CCC2(O)C3Cc4ccc(O)c5c4C2(CCN3CC2CC2)C1O5 (stereo not drawn) | active: 0.48
11 | NCC(CS(=O)(=O)O)c1ccc(Cl)cc1 (stereo not drawn) | inactive: 0.187
12 | OC(Cc1ccncc1)C(Cl)(Cl)Cl (stereo not drawn) | inactive: 0.229
13 | O=C1NC(=O)c2c1c1c3ccccc3[nH]c1c1[nH]c3ccccc3c21 | active: 1
14 | O[C@H]1[C@H](O)[C@@H](O)CN2CC[C@H](O)[C@H]12 | inactive: 0.225
15 | CC(C)(O)C1C2OC(=O)C1C1(O)CC3OC34C(=O)OC2C14C (stereo not drawn) | active: 0.382
16 | Nc1ccncc1 | active: 0.409
17 | COc1ccc(C[C@H]2NC[C@H](O)[C@H]2OC(C)=O)cc1 | active: 1
18 | O=P1(N(CCCl)CCCl)NCCCO1 (stereo not drawn) | inactive: 0.224
19 | C=C(C)[C@@H]1[C@H]2OC(=O)[C@H]1[C@]1(O)C[C@H]3O[C@]34C(=O)O[C@H]2[C@]14C | active: 0.33
20 | CCOC(=O)c1ncc2[nH]c3ccc(OCc4ccccc4)cc3c2c1COC | active: 0.742
21 | FC(F)OC(F)(F)C(F)Cl (stereo not drawn) | inactive: 0.08

Same assay, conditions: 48 h; 5 µM

Row | Structure (SMILES) | mean average precision
22 | Cc1[nH]cnc1CCN | active: 0.748
23 | C[C@@H]1CN(Cc2ccc(F)cc2)CCN1C(=O)COc1ccc(Cl)cc1NC(N)=O | active: 0.979
24 | COc1cc2c(c(OC)c1OC)-c1ccc(OC)c(=O)cc1[C@@H](NC(C)=O)CC2 | active: 1
25 | C[C@@H]1C[C@@H]([C@H](O)CC2CC(=O)NC(=O)C2)C(=O)[C@@H](C)C1 | active: 1
26 | CCCCC/C=C\C/C=C\C/C=C\C/C=C\CCCC(=O)NCCO | active: 0.52
27 | O=C1NCN(c2ccccc2)C12CCN(CC1COc3ccccc3O1)CC2 (stereo not drawn) | active: 0.313
28 | C/C(=C\c1csc(C)n1)[C@H]1C[C@@H]2O[C@]2(C)CCC[C@H](C)[C@H](O)[C@@H](C)C(=O)C(C)(C)[C@H](O)CC(=O)O1 | active: 1
29 | COc1ccc(N(C(=O)Oc2c(C)cccc2C)c2ccnc(Nc3ccc(N4CCN(C)CC4)cc3)n2)c(OC)c1 | active: 1
30 | CCC1(C2=NCCN2)Cc2ccccc2O1 (stereo not drawn) | inactive: 0.206
31 | C=C1CCC2(O)C3Cc4ccc(O)c5c4C2(CCN3CC2CC2)C1O5 (stereo not drawn) | active: 0.5
32 | NCC(CS(=O)(=O)O)c1ccc(Cl)cc1 (stereo not drawn) | inactive: 0.278
33 | OC(Cc1ccncc1)C(Cl)(Cl)Cl (stereo not drawn) | active: 0.503
34 | O=C1NC(=O)c2c1c1c3ccccc3[nH]c1c1[nH]c3ccccc3c21 | active: 1
35 | O[C@H]1[C@H](O)[C@@H](O)CN2CC[C@H](O)[C@H]12 | inactive: 0.212
36 | CC(C)(O)C1C2OC(=O)C1C1(O)CC3OC34C(=O)OC2C14C (stereo not drawn) | active: 0.638
37 | Nc1ccncc1 | active: 0.461
38 | COc1ccc(C[C@H]2NC[C@H](O)[C@H]2OC(C)=O)cc1 | active: 1
39 | O=P1(N(CCCl)CCCl)NCCCO1 (stereo not drawn) | active: 0.592
40 | C=C(C)[C@@H]1[C@H]2OC(=O)[C@H]1[C@]1(O)C[C@H]3O[C@]34C(=O)O[C@H]2[C@]14C | active: 0.725
41 | CCOC(=O)c1ncc2[nH]c3ccc(OCc4ccccc4)cc3c2c1COC | active: 0.993
42 | FC(F)OC(F)(F)C(F)Cl (stereo not drawn) | active: 0.44

Test system: U2OS
Experiment: as above
Details: 24 h; 5 µM

Row | Structure (SMILES) | mean average precision
43 | Cc1[nH]cnc1CCN | active: 0.528
44 | C[C@@H]1CN(Cc2ccc(F)cc2)CCN1C(=O)COc1ccc(Cl)cc1NC(N)=O | active: 0.758
45 | COc1cc2c(c(OC)c1OC)-c1ccc(OC)c(=O)cc1[C@@H](NC(C)=O)CC2 | active: 1
46 | C[C@@H]1C[C@@H]([C@H](O)CC2CC(=O)NC(=O)C2)C(=O)[C@@H](C)C1 | active: 1
47 | CCCCC/C=C\C/C=C\C/C=C\C/C=C\CCCC(=O)NCCO | active: 0.586
48 | O=C1NCN(c2ccccc2)C12CCN(CC1COc3ccccc3O1)CC2 (stereo not drawn) | active: 0.456
49 | C/C(=C\c1csc(C)n1)[C@H]1C[C@@H]2O[C@]2(C)CCC[C@H](C)[C@H](O)[C@@H](C)C(=O)C(C)(C)[C@H](O)CC(=O)O1 | active: 1
50 | COc1ccc(N(C(=O)Oc2c(C)cccc2C)c2ccnc(Nc3ccc(N4CCN(C)CC4)cc3)n2)c(OC)c1 | active: 1
51 | CCC1(C2=NCCN2)Cc2ccccc2O1 (stereo not drawn) | inactive: 0.107
52 | C=C1CCC2(O)C3Cc4ccc(O)c5c4C2(CCN3CC2CC2)C1O5 (stereo not drawn) | active: 0.551
53 | NCC(CS(=O)(=O)O)c1ccc(Cl)cc1 (stereo not drawn) | active: 0.439
54 | OC(Cc1ccncc1)C(Cl)(Cl)Cl (stereo not drawn) | active: 0.611
55 | O=C1NC(=O)c2c1c1c3ccccc3[nH]c1c1[nH]c3ccccc3c21 | active: 1
56 | O[C@H]1[C@H](O)[C@@H](O)CN2CC[C@H](O)[C@H]12 | inactive: 0.299
57 | CC(C)(O)C1C2OC(=O)C1C1(O)CC3OC34C(=O)OC2C14C (stereo not drawn) | inactive: 0.119
58 | Nc1ccncc1 | active: 0.355
59 | COc1ccc(C[C@H]2NC[C@H](O)[C@H]2OC(C)=O)cc1 | active: 1
60 | O=P1(N(CCCl)CCCl)NCCCO1 (stereo not drawn) | active: 0.678
61 | C=C(C)[C@@H]1[C@H]2OC(=O)[C@H]1[C@]1(O)C[C@H]3O[C@]34C(=O)O[C@H]2[C@]14C | active: 0.457
62 | CCOC(=O)c1ncc2[nH]c3ccc(OCc4ccccc4)cc3c2c1COC | active: 0.913
63 | FC(F)OC(F)(F)C(F)Cl (stereo not drawn) | inactive: 0.07
